Where a name gives a salt, the structure may show the parent alone. Read-outs that look alike come from different tables or passages of the source.
Tested on: profilin II-GFP transfected hippocampal neurons
[1] = [Ca2+]0 0, 30 min, glutamate 10 μM, thapsigargin 1 μM
[2] = [Ca2+]0 2 mM, 30 min, glutamate 10 μM, thapsigargin 1 μM
[3] = agonist alone, 30 min, glutamate 10 μM, NMDA 10 μM, DHPG 10 μM, AMPA 2 μM
[4] = with glutamate while blocking receptor subtype, APV 500 μM, MK-801 50 μM, CNQX 20 μM, NBQX 20 μM, MCPG 100 μM-1 mM, Ly341495 30 μM, 15 min preincubation
[5] = 90 mM KCl 4 times for 3 min with 10 min intervals

SMILES: C[C@]12N[C@H](Cc3ccccc31)c1ccccc12 [MK-801, (5R,10S)-(+)-5-methyl-10,11-dihydro-5H-dibenzo[a, d]cyclohepten-5,10-imine hydrogen maleate]
- Number of cells − (no profilin II-GFP targeting) ([…], APV 500 μM, MK-801 50 μM, CNQX 20 μM, NBQX 20 μM, MCPG 100 μM-1 mM, Ly341495 30 μM, 15 min preincubation): 6

SMILES: C/C=C(/C)C(=O)O[C@H]1C(C)=C2[C@H]([C@@H]1OC(=O)CCCCCCC)[C@@](C)(OC(C)=O)C[C@H](OC(=O)CCC)[C@@]1(O)[C@H]2OC(=O)[C@@]1(C)O [Thapsigargin, thapsigargin]
- Numbers of cells + (weak targeting of profilin II-GFP) [1]: 2
- Numbers of cells − (no targeting of profilin II-GFP) [1]: 5
- Numbers of cells + (weak targeting of profilin II-GFP) [2]: 5
- Numbers of cells ++ (strong targeting of profilin II-GFP) [2]: 5
- Numbers of cells − (no targeting of profilin II-GFP) [2]: 5
- Profilin II targeting to spines (in words) (absence of extracellular Ca2+, glutamate 10 μM, thapsigargin 1 μM): only weak redistribution of profilin II in a minority of cells
- Cells showing accumulation of profilin II in spines (thapsigargin 1 μM, extracellular Ca2+ present, out of 15 cells tested): 10

SMILES: N[C@@H](CCC(=O)O)C(=O)O [glutamate]
- Time at which redistribution of profilin II-GFP into spine heads was maximal (10 μM glutamate): 30 min
- Numbers of cells − (no targeting of profilin II-GFP) [1]: 5
- Number of cells in category + (partial targeting of profilin II-GFP to spines) [3]: 3
- Number of cells in category ++ (strong targeting of profilin II-GFP to spines) [3]: 22
- Number of cells in category − (no targeting of profilin II-GFP to spines) [3]: 1
- Profilin II-GFP redistribution to dendritic spines (in words) (agonist alone, glutamate 10 μM, NMDA 10 μM, DHPG 10 μM): strong redistribution
- Profilin II concentration in spine heads after long post-stimulus incubation (in words) (glutamate 30 min, then 4 or 16 hours in medium without glutamate (n=10 cells at 4 h, 4 cells at 16 h)): undiminished levels

SMILES: N[C@H](CCCP(=O)(O)O)C(=O)O [APV, D(−)-2-amino-5-phosphonopentanoic acid]
- Numbers of cells − (no targeting) (90 mM KCl (spaced) + 100 μM APV): 7
- Cells showing any redistribution of profilin to spines (90 mM KCl, continuous (n=5) and spaced (n=7), in the presence of APV): none
- Effect on glutamate-induced profilin II targeting (in words) (glutamate with NMDA receptors blocked): greatly reduced
- Number of cells + (partial profilin II-GFP targeting) [4]: 5
- Number of cells ++ (strong profilin II-GFP targeting) [4]: none
- Number of cells − (no profilin II-GFP targeting) [4]: 17

SMILES: [Cl-].[K+] [KCl]
- Numbers of cells + (weak targeting) [5]: 2
- Numbers of cells ++ (strong targeting) [5]: 3
- Shift of profilin II into spines (in words) (90 mM KCl continuously for 30 min (n=2)): weak shift

Source: patent US20050048462A1, “Markers and screens” (priority 2001, published 2005)
